Results taken from article PMC4336329 (PLoS ONE, 2015).
Screen size: about 310,000 compounds; about 2,200 (0.71%) showed an effect of 50% or more. The effect is printed as a negative number. Some of the results follow.

Molecular target: human ether-à-go-go-related gene (hERG) potassium channel (human, UniProt Q12809)
Test: primary screen, population patch clamp on CHO cells stably expressing hERG

Sequence of human ether-à-go-go-related gene (hERG) potassium channel (Q12809 whole entry, looked up): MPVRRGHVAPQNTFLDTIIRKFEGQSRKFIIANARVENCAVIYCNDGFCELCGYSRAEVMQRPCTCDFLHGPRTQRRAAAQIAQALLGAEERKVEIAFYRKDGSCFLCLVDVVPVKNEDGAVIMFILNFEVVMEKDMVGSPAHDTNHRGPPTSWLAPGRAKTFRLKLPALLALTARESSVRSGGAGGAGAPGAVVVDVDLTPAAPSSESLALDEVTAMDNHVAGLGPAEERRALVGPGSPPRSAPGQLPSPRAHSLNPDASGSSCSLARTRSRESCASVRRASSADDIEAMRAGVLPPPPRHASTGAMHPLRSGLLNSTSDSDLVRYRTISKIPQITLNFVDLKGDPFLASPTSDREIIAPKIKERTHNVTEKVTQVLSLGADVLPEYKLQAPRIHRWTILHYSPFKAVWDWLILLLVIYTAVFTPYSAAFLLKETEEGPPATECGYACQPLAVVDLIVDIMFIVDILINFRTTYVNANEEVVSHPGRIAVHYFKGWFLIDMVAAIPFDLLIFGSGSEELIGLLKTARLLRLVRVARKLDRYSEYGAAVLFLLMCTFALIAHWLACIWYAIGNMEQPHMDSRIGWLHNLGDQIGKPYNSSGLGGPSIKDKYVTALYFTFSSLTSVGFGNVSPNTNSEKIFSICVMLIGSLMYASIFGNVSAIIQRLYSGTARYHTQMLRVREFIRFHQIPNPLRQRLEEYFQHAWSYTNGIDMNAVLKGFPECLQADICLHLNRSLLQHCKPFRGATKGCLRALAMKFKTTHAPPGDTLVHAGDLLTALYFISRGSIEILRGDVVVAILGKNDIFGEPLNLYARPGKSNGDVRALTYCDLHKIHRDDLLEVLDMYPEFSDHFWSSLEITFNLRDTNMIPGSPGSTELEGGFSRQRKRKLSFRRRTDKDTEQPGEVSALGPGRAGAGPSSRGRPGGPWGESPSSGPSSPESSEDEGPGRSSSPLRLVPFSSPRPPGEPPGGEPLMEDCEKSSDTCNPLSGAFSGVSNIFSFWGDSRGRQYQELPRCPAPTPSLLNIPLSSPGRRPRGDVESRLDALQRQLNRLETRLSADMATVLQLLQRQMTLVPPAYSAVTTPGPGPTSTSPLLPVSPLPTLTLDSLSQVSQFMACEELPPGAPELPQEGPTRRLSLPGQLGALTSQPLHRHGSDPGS

Structure (SMILES) | hERG current change (%, negative = inhibition) at 1uM [%]
O=C(c1cnc2n(c1=O)CCS2)N1CCN(c2ccccc2F)CC1 | -5.24
CCC(C)NC(=O)CN(c1ccc2c(c1)OCO2)S(=O)(=O)c1c(C)n[nH]c1C (stereo not shown) | 7.3
Cl.O=C(COc1ccc(Br)cc1)OCCN1CCCCC1 | 15.2
CC(=O)c1sc(NC(=O)c2ccccc2)nc1-c1ccccc1 | 7.05
Fc1ccccc1C1c2[nH]c3ccccc3c2CCN1CCCn1cccn1 (stereo not shown) | -5.78
CCOc1c2ccc(C(=O)N[C@H](C)C3CCCCC3)cc2nn1CCOC | 0.662
O=C(O)CSCCCC(=O)Nc1ccc(Br)cc1 | 6.69
O=[N+]([O-])c1c2ccccc2cc2ccccc12 | 8.73
O=C(N/N=C/C=C\c1ccccc1)c1cnccn1 | -7.39
O=c1[nH]c(-c2ccc(F)cc2)nc2c1sc(=S)n2-c1ccccc1 | -14.5
CC(=O)c1ccc(N2CCN(C(=S)Nc3cccc(Cl)c3)CC2)cc1 | 4.97
O=C(Nc1ccccc1N1CCOCC1)C1CCN(S(=O)(=O)c2cccc(C(F)(F)F)c2)CC1 | 7.76
COc1cc(OC)c(S(=O)(=O)NCc2cccnc2)cc1NC(C)=O | 7.19
COc1ccccc1N1C(=O)CC(N2CCc3ccccc32)C1=O (stereo not shown) | 6.98
O=S(=O)(c1ccccc1F)N1CCN(c2nc3ccccc3s2)CC1 | 12.5
O=C(NCc1cccnc1)c1ccc(NC(=O)c2ccc(Br)cc2)cc1 | 19.6
COc1ccc(NC(=O)Oc2ccccc2)cc1Cl | 13.5
CCOc1ccc(S(=O)(=O)NC2CC2)cc1C(N)=O | 6.74
Clc1ccc(NC2(c3nnnn3C3CCCCC3)CCCCC2)cc1 | 12.7
Nc1nnc(COc2ccc(Br)cc2Br)s1 | 6.1

Structure (SMILES) | hERG current change (%, negative = inhibition) at 1uM [%]
CCOC(=O)C(CCCP(=O)(c1ccccc1)c1ccccc1)(NC(C)=O)C(=O)OCC | 12.5
O=C(C(=O)N1CCOCC1)c1c[nH]c2ccccc12 | 15.1
NNC(=O)Cn1nc(Cc2ccccc2)n(N)c1=O | 11.9
Cc1cccc(OCC(=O)Nc2ccc(N3CCN(C(=O)c4ccco4)CC3)cc2)c1C | 1.53
C=CCc1ccc(OCCCNC2CCCC2)c(OC)c1 | -8.61
CCC(C)Sc1ccc([C@H]2N[C@@](C)(C(=O)OC)[C@H]3C(=O)N(C)C(=O)[C@@H]23)cc1OC.O=C(O)C(F)(F)F (stereo partly shown) | 2.05
O=C(NC1CCCCC1)c1ccc2c(c1)OCCO2 | 10.8
COc1cccc(Nc2nc(C)nc3c2oc2ccccc23)c1 | 9.36
Cc1occc1C(=O)Nc1cccc(C(=O)O)c1 | 5.4
O/N=C(\c1ccc(Cl)cc1Cl)c1ncc(C(F)(F)F)cc1Cl | 15.7
NS(=O)(=O)c1ccc(NNC(=O)c2ccccc2C(=O)O)cc1 | 17.8
Cn1c(O)c(C2=NNC(c3ccc(Cl)cc3)C2)c(=O)n(C)c1=O (stereo not shown) | 12.7
COc1ccc(OC)c(NC(=O)COc2ccc(S(=O)(=O)N3CCCC3)cc2)c1 | 2.64
CC(=Nc1ccccc1N)c1c(O)n(C)c(=O)[nH]c1=O | 11.8
Cc1cc(C)nc(NC(=O)c2cccc(Cl)c2)n1 | 18.2
CC(C)NC(=O)C1CC(=O)N(C(C)c2ccccc2)C1 (stereo not shown) | 7.83
Cc1ccc(C2C3=C(CCCC3=O)Nc3[nH]c(=S)[nH]c(=O)c32)cc1 (stereo not shown) | 9.42
CC1CCCN(C(=O)c2ccc3c(c2)OCO3)C1 (stereo not shown) | 15.4
CC(NC(=O)c1nn(C)c2c1CS(=O)(=O)c1ccccc1-2)c1ccccc1 (stereo not shown) | 13
N/C(=N/O)c1nc(N2CCCCC2)nc(N2CCCCC2)n1 | 13.8

Structure (SMILES) | hERG current change (%, negative = inhibition) at 1uM [%]
Cc1ccc(C)c(NC(=O)c2cc(S(=O)(=O)N3CCCCC3)ccc2N2CCOCC2)c1 | -12.9
Cc1ccc(N2C(=O)N(Cc3ccccc3C)c3ccccc3S2(=O)=O)cc1 | 2.41
CCOc1ccc(-c2nn3c(-c4ccc(F)cc4)nnc3s2)cc1 | 7.63
O=C(NC1CCN(S(=O)(=O)c2ccccc2)CC1)c1cccc(F)c1 | 16.9
N#CCSCC(=O)Nc1ccc(F)cc1 | 5.38
Cc1cccc(C2=N/C(=C\c3cccnc3)C(=O)O2)c1 | 17.7
CCCC[N+]12CCC(CC1)C(Cc1ccccc1)C2.[Br-] (stereo not shown) | 17.1
O=C(NCC(c1ccc(F)cc1)N1CCOCC1)c1ccc(C(=O)c2ccccc2)cc1 (stereo not shown) | -1.63
Cc1[nH]c2ccccc2c1C(=O)CN1CCC(C)CC1 | 5.35
Cc1cc[n+](CC(=O)c2ccc(NC(=O)c3ccccc3)cc2)cc1.[Br-] | 11.8
CCOC(=O)/C(C#N)=C\c1cc(C)n(-c2ccccc2)c1C | 10.5
CN(C)CCCN(C(=O)c1ccc(C(=O)c2ccccc2)cc1)c1nc2cc3c(cc2s1)OCO3.Cl | 9.56
c1ccc(CN2CCN(CCCNc3ccc4nnc(-c5ccccc5)n4n3)CC2)cc1 | -13.5
O=C1c2cccc3cc([N+](=O)[O-])cc(c23)C(=O)N1c1nncs1 | 8.16
CC1CCN(CCNC(=O)CCS(=O)(=O)c2ccc(Br)cc2)CC1 | 3.43
Cc1ccc(SCC(=O)NCc2ccco2)cc1 | 11.4
O=C(Nc1cc(Cl)c(O)c(Cl)c1)C1CCCO1 (stereo not shown) | 11.1
CN(C)NC(=O)C(NC(=O)c1ccccc1)C12CC3CC(CC(C3)C1)C2.Cl (stereo not shown) | 8.26
